Measured values from PubChem BioAssay AID1468 (National Center for Advancing Translational Sciences (NCATS), 2008).
Screen size: about 280,000 compounds; about 1,100 (0.39%) were called active. Inconclusive results, whose numbers are uncertain, are shown with a selection of clear calls. Calls come from the whole dose curve; as a rule, active = well fitted inhibition curve with a large enough effect; inconclusive = small, poorly fitted or top-dose-only effect, or effect the other way; inactive = flat fitted curve, though single readings scatter. Potencies of inconclusive entries are left out as doubtful fits.

biological target: Microtubule-associated protein tau (Homo sapiens) (UniProt P10636); experiment: qHTS for Inhibitors of Tau Fibril Formation, Fluorescence Polarization; details: K18 P301L tau heparin fibrillization, Alexa594 FP, 6 h; series mostly up to 57.7 µM; activity, negative = inhibition: at the top concentration; note: nearly all actives have a fitted effect of over 55% in size
In short: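 Human tau K18 […] P301L fragment, 15 uM unlabeled plus 0.24 uM Alexa 594-labeled tau (final), with compound and 20 uM heparin in 100 mM sodium acetate pH 7; 6 hr at 37 C, then Alexa 594 FP read.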
% is set by controls: 0 for no effect and ±100 for the full control effect; potency is the fitted concentration of half-maximal effect; tags give direction and shape of the fitted curve.

Sequence of UniProt P10636 (P10636 whole entry, looked up, the tested form may be a part): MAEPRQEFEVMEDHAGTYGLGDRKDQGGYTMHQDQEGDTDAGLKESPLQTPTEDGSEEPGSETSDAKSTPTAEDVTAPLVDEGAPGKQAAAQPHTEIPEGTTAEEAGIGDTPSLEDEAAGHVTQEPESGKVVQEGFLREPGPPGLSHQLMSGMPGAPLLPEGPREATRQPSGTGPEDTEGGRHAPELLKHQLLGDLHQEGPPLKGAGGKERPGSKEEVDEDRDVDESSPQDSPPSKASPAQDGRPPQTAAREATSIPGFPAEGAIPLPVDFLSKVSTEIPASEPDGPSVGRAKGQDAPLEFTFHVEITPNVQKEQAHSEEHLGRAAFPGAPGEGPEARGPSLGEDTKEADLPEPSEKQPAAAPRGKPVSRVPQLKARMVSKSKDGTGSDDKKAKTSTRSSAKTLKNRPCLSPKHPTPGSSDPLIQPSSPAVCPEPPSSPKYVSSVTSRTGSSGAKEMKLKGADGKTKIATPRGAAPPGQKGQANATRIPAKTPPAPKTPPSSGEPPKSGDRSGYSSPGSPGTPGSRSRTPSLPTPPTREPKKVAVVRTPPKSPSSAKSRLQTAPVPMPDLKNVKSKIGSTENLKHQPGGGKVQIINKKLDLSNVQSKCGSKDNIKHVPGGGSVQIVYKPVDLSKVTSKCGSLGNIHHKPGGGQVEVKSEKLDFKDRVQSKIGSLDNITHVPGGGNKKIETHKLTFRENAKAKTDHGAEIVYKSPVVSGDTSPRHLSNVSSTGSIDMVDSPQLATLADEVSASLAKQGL

Row | SMILES | activity, negative = inhibition | Potency
1 | CC1CCN(CCCOc2ccc(Cl)cc2Br)CC1 | inactive: 5.03% | 
2 | Cc1ccc(S(=O)(=O)Nc2cc3c(cc2NCc2ccccc2)n(C)c(=O)n3C)c(C)c1 |  | inconclusive [inhibitor, single point]
3 | CCCCn1c(SCN2C(=O)c3ccccc3C2=O)nc2cc(S(N)(=O)=O)ccc21 | inactive: 1.25% | 
4 | O=C(Nc1cccc(Cl)c1)c1ccc(F)c(S(=O)(=O)NCc2cccs2)c1 |  | inconclusive [inhibitor, partial curve]
5 | O=C(CN1CCN(c2ccc(O)cc2)CC1)Nc1ccc2c(c1)OCCO2 | inactive: -11.8% | 
6 | CCC(C(=O)Nc1cc(OC)cc(OC)c1)n1nc(-c2ccc(C)c(C)c2)ccc1=O (stereo unspecified) | inactive: -2.97% | 
7 | O=C(NNC(=O)c1cccnc1)Nc1cccc(Cl)c1Cl |  | inconclusive [inhibitor, single point]
8 | CCOc1ccc(C(=O)NCCn2cc(SCC(=O)Nc3ccc4c(c3)OCCO4)c3ccccc32)cc1 | inactive: -16.7% | 
9 | Nc1ccc2c(c1)-c1ccccc1S(=O)(=O)N2 |  | inconclusive [inhibitor, single point]
10 | CCOc1ccc(NC(=O)C(Cc2ccccc2)N2C(=O)c3cccc4cccc(c34)C2=O)cc1 (stereo unspecified) |  | inconclusive [inhibitor, full curve]
11 | CCN(CC)C(=O)C1CCCN(C(=O)Nc2ccc3nsnc3c2)C1 (stereo unspecified) |  | inconclusive [inhibitor, partial curve]
12 | Cc1ccc(NC(=O)Nc2ccc3snnc3c2)cc1C |  | inconclusive [inhibitor, partial curve]
13 | CCOC(=O)c1cc(CC)sc1NC(=O)c1ccc2c(c1)OCCO2 |  | inconclusive [inhibitor, partial curve]
14 | O=[N+]([O-])c1cc(Cl)ccc1-c1nc(-c2ccccc2)no1 |  | inconclusive [activator, partial curve, poor fit]
15 | CCOc1ccccc1NC(=O)NC(=O)N(C)S(=O)(=O)c1ccc(C)cc1 |  | inconclusive [inhibitor, single point]
16 | O=C(Nc1nc2ccc(S(=O)(=O)N3CCCC3)cc2s1)C1CCCCC1 | inactive: -10.6% | 
17 | Cc1ccccc1Nc1oc(-c2ccccc2)nc1-c1ccccc1F |  | inconclusive [inhibitor, single point]
18 | Cc1cc(Cl)ccc1NNC(=O)CCc1ccccc1 | inactive: -0.131% | 
19 | N#CC1=C(S)N=C(N)C(c2nc(-c3ccccc3)cs2)C12CCCCC2 (stereo unspecified) |  | inconclusive [inhibitor, partial curve, poor fit]
20 | Cc1ccc2nc(N3CCC(C(=O)N4CCN(c5cccc(Cl)c5)CC4)CC3)[nH]c2c1 | inactive: 13% | 
21 | COc1ccc(-c2cc(C(=O)OC(C)C(=O)c3ccccc3)c3cccc(Cl)c3n2)cc1 (stereo unspecified) |  | inconclusive [inhibitor, single point]
22 | O=C1C(=O)c2c(C(=O)c3ccccc3)coc2-c2ccccc21 |  | active: 7.94 µM

Row | SMILES | activity, negative = inhibition | Potency
23 | c1ccc(Nc2c(-c3c[nH]c4ccccc34)nc3ccccn23)cc1 |  | inconclusive [activator, partial curve]
24 | CCCCc1ccc(N=N/C(C(=O)Nc2ccccc2OC)=C(/C)O)cc1 |  | inconclusive [inhibitor, partial curve]
25 | Cc1ccc(N2C(=O)c3ccccc3C2C(=O)c2ccc(O)cc2O)cc1 (stereo unspecified) |  | inconclusive [inhibitor, single point]
26 | COc1cc(/C=C/c2cc(OC(C)=O)c3ccccc3n2)c(OC(C)=O)c([N+](=O)[O-])c1 |  | inconclusive [inhibitor, partial curve]
27 | Cc1ccccc1-c1noc(-c2ccc(O)cc2)n1 |  | inconclusive [inhibitor, single point]
28 | COc1cc(C(=O)NCC(c2cccs2)S(=O)(=O)c2ccc(F)cc2)cc(OC)c1OC (stereo unspecified) | inactive: -12.9% | 
29 | O=c1cc(-c2ccc(O)c(-c3c(O)cc(O)c4c(=O)cc(-c5ccc(O)cc5)oc34)c2)oc2cc(O)cc(O)c12 |  | inconclusive [inhibitor, single point]
30 | COc1ccc(OC)c(NC(=O)CSc2nnc3ccc4ccccc4n23)c1 | inactive: 4.11% | 
31 | COc1ccc(OC)c(NC(=O)Nc2nnc(N3CCCCC3C)s2)c1 (stereo unspecified) |  | inconclusive [activator, partial curve, poor fit]
32 | CC(=O)Nc1ccc2nc(NC(=O)COc3ccccc3C)sc2c1 |  | inconclusive [inhibitor, partial curve]
33 | Cc1c(NC(=O)c2ccccc2)c(=O)n(-c2ccccc2)n1C |  | inconclusive [inhibitor, single point]
34 | COc1ccccc1OC(C)C(=O)Nc1ccc(-c2nc3ccccc3s2)cc1 (stereo unspecified) |  | inconclusive [inhibitor, full curve]
35 | CCN1/C(=C/C=C/c2oc3ccc(-c4ccccc4)cc3[n+]2CC)Oc2ccc(-c3ccccc3)cc21 |  | inconclusive [inhibitor, partial curve]
36 | CCOC(=O)C1CCN(S(=O)(=O)c2ccc(C)c(C)c2)CC1 | inactive: -5.36% | 
37 | COc1ccc(N(C)S(=O)(=O)c2ccc3c(c2)CCN3C(=O)CCC(=O)O)cc1 |  | inconclusive [inhibitor, single point]
38 | CN(C)c1ccc(/C=C/C(=O)c2ccccc2O)cc1 |  | inconclusive [inhibitor, single point]
39 | CCOC(=O)c1ccc(N2C(=O)c3n[nH]c(-c4ccco4)c3C2c2ccccc2OC)cc1 (stereo unspecified) |  | inconclusive [inhibitor, partial curve]
40 | CCN(CC)c1ccc(NC(=S)NC(=O)c2ccco2)cc1 |  | inconclusive [activator, full curve, poor fit]
41 | O=C(CSc1nnnn1-c1ccccc1)N1CCc2ccccc21 | inactive: -1.79% | 
42 | Cc1ccc(/C=N/NC(=O)C2CCN(Cc3ccc(F)cc3Cl)CC2)o1 | inactive: -3.28% | 
43 | O=C(c1ccc(NC(=S)NCc2ccco2)cc1)N1CCCCC1 | inactive: 3.68% | 
44 | COC(=O)c1c(C)oc2ccc(N(C(=O)c3ccncc3)S(=O)(=O)c3ccc(Br)cc3)cc12 |  | inconclusive [activator, single point]

Row | SMILES | activity, negative = inhibition | Potency
45 | COc1ccc(/C=C/C(=O)NCc2cnn(C)c2C)cc1COc1ccc(Br)cc1 |  | inconclusive [activator, single point]
46 | CCN1CCc2c(sc(-n3cccc3)c2C(C)NC(=O)Nc2ccc(C(=O)OC)cc2)C1 (stereo unspecified) |  | inconclusive [inhibitor, partial curve]
47 | COc1ccc(/C=N/NC(=O)c2ccc(CN3c4cccc5cccc(c45)S3(=O)=O)cc2)cc1 |  | inconclusive [inhibitor, single point]
48 | CCCCOC(=O)c1ccc(NC(=O)c2ccc3c(c2)CCN3S(C)(=O)=O)cc1 |  | inconclusive [inhibitor, partial curve]
49 | O=C1CC(C(F)(F)C(F)(F)C(F)(F)C(F)(F)F)=Nc2ccccc2N1 |  | inconclusive [inhibitor, single point]
50 | COC(=O)c1scc(-c2ccc(C)cc2)c1S(=O)(=O)Nc1cc(C)c(Cl)cc1OC |  | inconclusive [inhibitor, single point]
51 | CC(C)(C)C(=O)Nc1sc2c(c1-c1nc3ccccc3[nH]1)CCCC2 |  | inconclusive [activator, partial curve, poor fit]
52 | COc1ccc(NC(=O)Cn2cc(C(=O)c3ccc(C)c(C)c3)c(=O)c3cc(OC)ccc32)cc1 |  | inconclusive [inhibitor, single point]
53 | Cc1ccc(NC(=O)CC(C)N2CCCC2)cc1 (stereo unspecified) |  | inconclusive [inhibitor, single point]
54 | Fc1cccc(CN2CCc3nc(Nc4ccc5c(c4)OCCO5)ncc3C2)c1F |  | inconclusive [activator, full curve]
55 | Cc1c(CCC(=O)O)c(=O)oc2cc3oc4c(c3cc12)CCCC4 | inactive: 7.8% | 
56 | COc1ccc(-c2csc3ncnc(Nc4ccccc4)c23)cc1 |  | inconclusive [inhibitor, single point]
57 | COc1cc(C2C(C#N)=C(N)Oc3cc(C)n(CC4CCCO4)c(=O)c32)cc2c1OCO2 (stereo unspecified) | inactive: 6.24% | 
58 | COc1cccc2cc(C(=O)N3CCC(C)CC3)c(=O)oc12 | inactive: -13.8% | 
59 | O=C(c1ccc2ccccc2c1)c1c[nH]cc1-c1ccccc1 |  | inconclusive [inhibitor, partial curve, poor fit]
60 | Cc1ccc(Cl)c(Nc2ccccc2C(=O)O)c1Cl |  | inconclusive [inhibitor, single point]
61 | Cc1ccccc1Nc1c(-c2c[nH]c3ccccc23)nc2ccc(Cl)cn12 |  | inconclusive [activator, partial curve]
62 | COc1cccc(CN(C(=O)Cc2c[nH]c3ccccc23)C(C(=O)NC2CCCCC2)c2ccc(C)o2)c1 (stereo unspecified) |  | inconclusive [activator, single point]
63 | Cc1c(CNC2CCCCCC2)c(C(=O)O)c(C)n1Cc1cccc(Cl)c1 |  | inconclusive [inhibitor, partial curve]
64 | Cc1cccc(CNC(=O)Cn2nc(C)c3nn(-c4ccc(Cl)cc4)c(C)c3c2=O)c1 | inactive: -0.203% | 
65 | Cc1ccccc1N=Cc1cccc(O)c1O |  | inconclusive [inhibitor, partial curve]
66 | CC1(C)Cc2ccccc2-c2nnc(SCC(=O)Nc3nc4ccccc4s3)n21 |  | inconclusive [inhibitor, single point]
